According to PubChem BioAssay (NCI):
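48-hour exposure; five concentrations; linearly interpolated endpoints. TGI is the concentration that stops growth completely.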

Tests used:
Experiment in all cases: NCI-60 cell line screen, 48 h
MDA-N = tested on: MDA-N
CAKI-1 renal = tested on: CAKI-1 renal
A549 NSCLC = tested on: A549 NSCLC
MCF7 breast = tested on: MCF7 breast
SNB-75 CNS = tested on: SNB-75 CNS
UACC-257 melanoma = tested on: UACC-257 melanoma
HOP-62 NSCLC = tested on: HOP-62 NSCLC
TK-10 renal = tested on: TK-10 renal
PC-3 prostate = tested on: PC-3 prostate
KM12 colon = tested on: KM12 colon
LXFL 529 NSCLC = tested on: LXFL 529 NSCLC
RXF 393 renal = tested on: RXF 393 renal
RXF-631 renal = tested on: RXF-631 renal
HOP-18 NSCLC = tested on: HOP-18 NSCLC
DMS 114 small cell lung = tested on: DMS 114 small cell lung
SF-539 CNS = tested on: SF-539 CNS
SNB-19 CNS = tested on: SNB-19 CNS
A498 renal = tested on: A498 renal
DU-145 prostate = tested on: DU-145 prostate
MDA-MB-435 = tested on: MDA-MB-435
NCI-H460 lung = tested on: NCI-H460 lung
SF-295 CNS = tested on: SF-295 CNS
OVCAR-5 ovarian = tested on: OVCAR-5 ovarian
M19-MEL melanoma = tested on: M19-MEL melanoma
HOP-92 NSCLC = tested on: HOP-92 NSCLC
SK-MEL-2 melanoma = tested on: SK-MEL-2 melanoma
U251 CNS = tested on: U251 CNS
HT29 colon = tested on: HT29 colon
SK-MEL-5 melanoma = tested on: SK-MEL-5 melanoma
OVCAR-3 ovarian = tested on: OVCAR-3 ovarian
NCI-H522 lung = tested on: NCI-H522 lung
COLO 205 colon = tested on: COLO 205 colon
786-0 renal = tested on: 786-0 renal
T-47D breast = tested on: T-47D breast
NCI-H226 lung = tested on: NCI-H226 lung
UO-31 renal = tested on: UO-31 renal
BT-549 breast = tested on: BT-549 breast
M14 melanoma = tested on: M14 melanoma
HCC-2998 colon = tested on: HCC-2998 colon
HCT-15 colon = tested on: HCT-15 colon
MDA-MB-231 breast = tested on: MDA-MB-231 breast
SF-268 CNS = tested on: SF-268 CNS
RPMI-8226 leukemia = tested on: RPMI-8226 leukemia
CCRF-CEM leukemia = tested on: CCRF-CEM leukemia
ACHN renal = tested on: ACHN renal
OVCAR-8 ovarian = tested on: OVCAR-8 ovarian
MALME-3M melanoma = tested on: MALME-3M melanoma
NCI/ADR-RES ovarian = tested on: NCI/ADR-RES ovarian
SNB-78 CNS = tested on: SNB-78 CNS
MOLT-4 leukemia = tested on: MOLT-4 leukemia
HL-60(TB) leukemia = tested on: HL-60(TB) leukemia
UACC-62 melanoma = tested on: UACC-62 melanoma
OVCAR-4 ovarian = tested on: OVCAR-4 ovarian
NCI-H23 lung = tested on: NCI-H23 lung
SW-620 colon = tested on: SW-620 colon
HCT-116 colon = tested on: HCT-116 colon
SN12C renal = tested on: SN12C renal
LOX IMVI melanoma = tested on: LOX IMVI melanoma
DLD-1 colon = tested on: DLD-1 colon
SK-OV-3 ovarian = tested on: SK-OV-3 ovarian
IGROV1 ovarian = tested on: IGROV1 ovarian
K-562 leukemia = tested on: K-562 leukemia
HS 578T breast = tested on: HS 578T breast

`COc1cc2c(c(OC)c1OC)-c1ccc(SC)c(=O)cc1[C@@H](N)CC2` was tested, and the TGI (MDA-N) was 0.0512 µM, the TGI (CAKI-1 renal) was 14.4 µM and the TGI (A549 NSCLC) was over 100 µM. The TGI (MCF7 breast) was over 100 µM, the TGI (SNB-75 CNS) was over 100 µM and the TGI (UACC-257 melanoma) was over 100 µM. It also gave a TGI (HOP-62 NSCLC) of over 100 µM, a TGI (TK-10 renal) of 89.7 µM and a TGI (PC-3 prostate) of over 100 µM. For the same compound, the TGI (KM12 colon) was 0.871 µM, the TGI (LXFL 529 NSCLC) was over 100 µM and the TGI (RXF 393 renal) was 26.3 µM. The TGI (RXF-631 renal) was 2.24 µM, the TGI (HOP-18 NSCLC) was over 100 µM and the TGI (DMS 114 small cell lung) was 0.012 µM. The TGI (SF-539 CNS) was 0.0287 µM, the TGI (SNB-19 CNS) was over 100 µM and the TGI (A498 renal) was 0.384 µM. It also gave a TGI (DU-145 prostate) of over 100 µM, a TGI (MDA-MB-435) of 0.0158 µM and a TGI (NCI-H460 lung) of over 100 µM. The TGI (SF-295 CNS) was 1.59 µM, the TGI (OVCAR-5 ovarian) was over 100 µM and the TGI (M19-MEL melanoma) was over 100 µM. For the same compound, the TGI (HOP-92 NSCLC) was 1.03 µM, the TGI (SK-MEL-2 melanoma) was 4.64 µM and the TGI (U251 CNS) was over 100 µM. For the same compound, the TGI (HT29 colon) was 0.397 µM, the TGI (SK-MEL-5 melanoma) was 0.0522 µM and the TGI (OVCAR-3 ovarian) was 0.0517 µM. It also gave a TGI (NCI-H522 lung) of 0.0498 µM, a TGI (COLO 205 colon) of 0.0206 µM and a TGI (786-0 renal) of over 100 µM. For the same compound, the TGI (T-47D breast) was over 100 µM, the TGI (NCI-H226 lung) was 16.1 µM and the TGI (UO-31 renal) was 95.3 µM. For the same compound, the TGI (BT-549 breast) was 0.0946 µM, the TGI (M14 melanoma) was 13.3 µM and the TGI (HCC-2998 colon) was 2.55 µM. It also gave a TGI (HCT-15 colon) of 15.6 µM, a TGI (MDA-MB-231 breast) of over 100 µM and a TGI (SF-268 CNS) of over 100 µM. It also gave a TGI (RPMI-8226 leukemia) of over 100 µM, a TGI (CCRF-CEM leukemia) of over 100 µM and a TGI (ACHN renal) of over 100 µM. It also gave a TGI (OVCAR-8 ovarian) of 6.93 µM, a TGI (MALME-3M melanoma) of over 100 µM and a TGI (NCI/ADR-RES ovarian) of 0.215 µM. For the same compound, the TGI (SNB-78 CNS) was over 100 µM, the TGI (MOLT-4 leukemia) was 48.3 µM and the TGI (HL-60(TB) leukemia) was 0.148 µM. The TGI (UACC-62 melanoma) was over 100 µM, the TGI (OVCAR-4 ovarian) was over 100 µM and the TGI (NCI-H23 lung) was 9.62 µM. It also gave a TGI (SW-620 colon) of over 100 µM, a TGI (HCT-116 colon) of 10.9 µM and a TGI (SN12C renal) of over 100 µM. For the same compound, the TGI (LOX IMVI melanoma) was over 100 µM, the TGI (DLD-1 colon) was over 100 µM and the TGI (SK-OV-3 ovarian) was 1.65 µM. The TGI (IGROV1 ovarian) was over 100 µM, the TGI (K-562 leukemia) was over 100 µM and the TGI (HS 578T breast) was 2.94 µM.
